Laboratory results: PubChem BioAssay AID1508642 (National Center for Advancing Translational Sciences (NCATS), 2021)
About 200 (0.47%) of roughly 43,000 compounds were called active. Not shown: some 12% with an inconclusive outcome. The call rests on the fitted dose curve; in most records, active means well fitted cell-killing curve with a large enough effect; inconclusive means small, poorly fitted or top-dose-only effect, or effect the other way; inactive means flat fitted curve, though single readings scatter. Some of the results follow.

Assay: Cell viability qHTS assay in S16 Pmp22-F2sN cells; further: nearly all actives have a fitted effect of over 65% in size
Settings: S16 Pmp22-F2sN Schwann cells (luciferase reporters placed in the Pmp22 gene) viability, CellTiter-Glo, 24 h; series mostly up to 57.5 µM; activity change, negative = cytotoxicity: at the top concentration
Procedure, shortened: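 Luminescence from CellTiter-Glo, read by CCD camera after a 15 min room-temperature incubation, served as the viability signal. Reporter Schwann cells (S16 Pmp22-F2sN) had been treated with pin-transferred compounds for 24 h at 37C.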
On the % scale 0 is the no-effect control and ±100 the full control effect.

Structure (SMILES)	activity change, negative = cytotoxicity
CCOC(=O)c1ccc(NC(=O)Cn2cc(C(=O)c3ccc(CC)cc3)c(=O)c3ccc(C)nc32)cc1	inactive: -15.9%
O=C(Nc1ccc(Br)cc1F)N1CCC(CN2CCCC2)CC1	inactive: -0.254%
Cc1nn(C)c2c1c(C(F)(F)F)cc(=O)n2C(C)C(=O)NCc1ccc(Cl)cc1 (configuration not stated)	inactive: 13%
CC1=C(C(=O)OCc2ccccc2)C(c2cccc(Cl)c2Cl)CC(=O)N1 (configuration not stated)	inactive: -0.922%
Cc1cccc(CNC(=O)CSCc2cnn(-c3ccccc3)c2-n2cccc2)c1	inactive: -1.36%
CCOC(=O)c1ccc(NS(=O)(=O)c2cc(-c3onc(C)c3C)ccc2C)cc1	inactive: -8.7%
Cc1[nH]c2ccccc2c1C1N2CC3(C)CN1CC(C)(C2)C3=O (configuration not stated)	inactive: -7.22%
CC1=C(c2ccc(C)cc2)S(=O)(=O)NC1=NCc1cccc(F)c1	inactive: 3.85%
COc1cc(OC)c(C2Nc3c(C)cccc3-c3cc(C)nn32)cc1OC (configuration not stated)	inactive: 3.03%
COc1ccc(OC)c(S(=O)(=O)NCc2cccn2Cc2cccc(C)c2)c1	inactive: -4.6%
CC1=C(C(=O)Nc2cccnc2)C(c2ccc(Cl)cc2)n2nc(-c3ccccc3)nc2N1 (configuration not stated)	inactive: 17.5%
Cc1ccc(C)c(NC(=O)CSc2c3c(nc4ccc(Cl)cc24)CCCC3)c1	inactive: 1.18%
COc1cn(CC(=O)Nc2cccc(C)c2C)c(CN2CCCCC2)cc1=O	inactive: -2.31%
Cn1c(=O)c2c(nc3n(-c4ccc(O)cc4)c(-c4ccc(Br)cc4)cn23)n(C)c1=O	inactive: -5.96%
COc1ccc(C(=O)Nc2cccc(OCc3cc(=O)n4c5c(sc4n3)CCCC5)c2)cc1	inactive: 11.6%
O=C(O)c1ccc(-n2c(/C=C\c3ccc(O)cc3)nc3ccccc3c2=O)cc1	inactive: -4.1%
Cc1ccc(C2=Nc3ccccc3N(CC(=O)NCc3ccc(F)cc3)C(=O)C2)cc1C	inactive: -23.3%
CCOC(=O)c1ccccc1NC(=O)c1sc2ncn(Cc3cccc(F)c3)c(=O)c2c1C	inactive: 13.3%
CC(C)NC(=O)CCCN1C(=O)CCn2nc(-c3cccn3C)cc21	inactive: 2.6%
CCN1CCN(c2cc3c(cc2F)c(=O)c(S(=O)(=O)c2ccccc2)cn3C)CC1	inactive: 5.39%
COc1ccccc1NC(=O)CSc1nc2ccccc2c2nc(-c3ccccc3)nn12	inactive: 11.6%
COc1cccc(C(=O)c2cn(CC(=O)NCc3ccccc3)c3nc(C)ccc3c2=O)c1	inactive: -10.7%
COc1ccc(OCc2nc3c4c(-c5ccccc5)c(-c5ccccc5)oc4ncn3n2)cc1	inactive: -14.1%
COc1ccc(CNC(=O)CSc2nc3ccccc3nc2Cc2ccccc2OC)cc1	inactive: 9.84%
COC(=O)c1sc(NC(=O)/C=C/c2ccc(OC)c(OC)c2)c(C(=O)OC)c1C	inactive: 5.11%

Structure (SMILES)	activity change, negative = cytotoxicity
COc1ccccc1CNC(=O)c1ccc2c(c1)nc(C)n2-c1ccccc1OC	inactive: 0.14%
Cc1nn2c(-c3ccco3)ccnc2c1-c1ccc(F)cc1	inactive: 8.12%
CCCCNc1nc2c(S(=O)(=O)c3ccc(C)c(C)c3)nnn2c2ccsc12	inactive: -2.41%
COc1cc(Nc2ncc3c(n2)CCN(Cc2cc(Br)cs2)C3)cc(OC)c1	inactive: -5.98%
COC(=O)c1ccccc1NC(=O)c1ccc2c(c1)CCN2S(C)(=O)=O	inactive: -5.03%
Cc1cc(Nc2ccc(F)cc2)n2c(nc3ccccc32)c1C#N	inactive: 7.76%
Cc1ccc(CSc2nc3c([nH]c4ccccc43)c(=O)n2C)cc1	inactive: -1.66%
Cc1c(-c2nc(-c3ccccc3)no2)nnn1-c1cccc(C(F)(F)F)c1	inactive: 4.2%
CCOc1ccc(NC(=O)Cn2c(C)cc3ccccc3c2=O)cc1	inactive: 21.3%
Cc1nc2ccccn2c(=O)c1NC(=O)c1ccc(C(F)(F)F)cc1	inactive: -9.14%
COc1ccc(NC(=O)c2cccn2-c2nnc(N3CCCCC3)s2)cc1Cl	inactive: -1.12%
Cc1ccc(-c2nnc(C3CCN(S(=O)(=O)c4ccc(C)c(C)c4)CC3)o2)cc1	inactive: 1.83%
CCOc1ccccc1NC(=O)CN1C(=O)CC(c2ccc(OC)c(OC)c2)Sc2ccccc21 (configuration not stated)	inactive: -14%
CCCCOC(=O)c1ccc(NC(=O)CSc2nc3c(c(=O)[nH]2)CCCC3)cc1	inactive: -24.3%
Cn1c(-n2cccc2)c(-c2c(-c3ccccc3)[nH]c3c2c(=O)n(C)c(=O)n3C)c(=O)n(C)c1=O	inactive: 1.88%
Cc1ccc(N2C(=O)CCSC23C(=O)N(Cc2ccccc2)c2ccccc23)cc1F (configuration not stated)	inactive: 18.6%
Cc1ccc(CNC(=O)Cn2c(=O)n(-c3ccc(Cl)cc3)c(=O)c3c(C)c(C)sc32)cc1	inactive: 5%
COc1ccc(OC)c(/C=C(/C#N)c2nc(-c3ccc(-c4ccccc4)cc3)cs2)c1	inactive: 7.93%
O=C(NCc1ccccc1)c1nn(-c2ccccc2)nc1CO	inactive: -5.18%
O=C(NCc1ccc(F)cc1)c1cc2c(=O)n3ccccc3nc2s1	inactive: 17.5%
Cc1cc(C)cc(NS(=O)(=O)c2ccc3[nH]cc(C(=O)N(C)Cc4ccccc4)c(=O)c3c2)c1	inactive: 1.99%
Cc1ccccc1CN1C(=O)c2ccccc2Sc2ccc(C(=O)NC(C)c3ccccc3)cc21 (configuration not stated)	inactive: 4.4%
Cc1ccc(-n2c(=O)c3cccnc3n2CC(=O)Nc2cc(Cl)ccc2C)cc1	inactive: 26.1%
O=c1cc(-c2ccccc2)n2c(SCc3c(F)cccc3Cl)nnc2[nH]1	inactive: -3.4%
CCCc1nn2c(=O)cc(COc3ccc(/C=C(\C#N)C(=O)Nc4ccccc4)cc3)nc2s1	inactive: 21.9%

Structure (SMILES)	activity change, negative = cytotoxicity
COc1ccc(C(CC(=O)NCc2ccccc2Cl)N2Cc3ccccc3C2=O)cc1OC (configuration not stated)	inactive: 2.77%
CC(C)CC(=O)NC1(C(F)(F)F)C(=O)Nc2c1c(=O)[nH]c(=O)n2-c1ccccc1 (configuration not stated)	inactive: -0.601%
Cc1ccc(NC(=O)CN(C)S(=O)(=O)c2cnc[nH]2)cc1	inactive: 3.68%
Cc1ccc(NC(=O)C(=O)NCc2ccco2)cc1	inactive: -12.8%
Cc1ccc(C)c(CN2C(=O)c3ccccc3S(=O)c3ccc(C(=O)N4CCN(c5cccc(Cl)c5)CC4)cc32)c1 (configuration not stated)	inactive: 8.57%
Cc1ccc(NC(=O)Cn2c(=O)n(CCCCC(=O)NCc3ccccc3Cl)c(=O)c3ccccc32)cc1	inactive: 13%
COc1ccccc1OCC(=O)NCC(c1ccc(Cl)cc1)N1CCOCC1 (configuration not stated)	inactive: 0.0647%
CCOc1ccccc1NC(=O)C(CC)n1c(C(=O)OC)cc2occc21 (configuration not stated)	inactive: 1.94%
COc1cc(C2c3c(-c4ccccc4O)n[nH]c3C(=O)N2Cc2ccco2)ccc1OCC(C)C (configuration not stated)	inactive: -9.85%
CCc1cccc(C)c1NC(=O)CN1CCCN(Cc2ccccc2Cl)S1(=O)=O	inactive: -5.56%
O=S(=O)(c1ccc(-n2cnnn2)cc1)N1CCN(c2cccc(Cl)c2)CC1	inactive: -3.13%
Cc1c(C(=O)N2CCCCCC2)c(S(=O)(=O)N(Cc2ccccc2)C(C)(C)C)c(C)n1C	inactive: 2.86%
COc1ccc(Nc2oc(/C=C/c3cccc(OC)c3)nc2C#N)cc1	inactive: -0.614%
O=C(Cn1ncc2ccsc2c1=O)N1CCN(c2ccccc2F)CC1	inactive: -0.0763%
CCCCN(CC)CCNC(=O)C1CCCN(S(=O)(=O)c2cccc3nsnc23)C1 (configuration not stated)	inactive: 4.69%
COc1ccccc1-c1noc(CCCC(=O)Nc2cc(C)ccc2C)n1	inactive: 7.78%
COc1ccc(C(=O)Nc2ccc(C(=O)OCc3cc(=O)n4nc(C5CC5)sc4n3)cc2)cc1	inactive: 9.4%
O=C(CN1CCSc2ccccc21)N1CCN(c2ccc(F)cc2)CC1	inactive: 12.8%
Cc1ccc(N(C)C(=O)c2cc(S(=O)(=O)N3CCOCC3)cn2C)cc1	inactive: 4.51%
CCCN(Cc1cccs1)C(=O)Nc1cc(OC)ccc1OC	inactive: 3.21%
COc1ccc(CCNC(=O)CCCCn2c(=O)c3ccccc3n(Cc3ccccc3Cl)c2=O)cc1OC	inactive: -2.27%
CCOC(=O)c1c(C)[nH]c(C)c1S(=O)(=O)NCC(=O)N1CCN(c2ccccc2OC)CC1	inactive: -0.0557%
COc1ccc(OC)c(S(=O)(=O)NCCc2csc(-c3cccc(F)c3)n2)c1	inactive: -0.479%
CCN(CC)C(=O)Nc1ccc2c(c1)N(Cc1ccccc1)C(=O)c1ccccc1S2	inactive: -0.661%
Cc1ccc(-n2nc3c(N4CCC(C(=O)NCc5ccccc5Cl)CC4)nnc(C)c3c2C)cc1	inactive: -3.52%

Structure (SMILES)	activity change, negative = cytotoxicity
Cc1ccc(-n2nc3c(=O)n(CC(=O)NCC(C)c4ccccc4)nc(C)c3c2C)cc1 (configuration not stated)	inactive: -9.87%
COc1ccc(Cn2ccc3nc(C)c(C(=O)NCc4cccc(OC)c4)cc3c2=O)cc1	inactive: -0.851%
CCc1ccccc1NC(=O)Cn1c2ncccc2c(=O)n1-c1ccccc1	inactive: 1.58%
Cc1cc(=O)c2cc(C(=O)Nc3ccccc3C)ccc2[nH]1	inactive: 9.22%
CCOc1cc2sc(N3CCC(C(=O)Nc4cc(C)cc(C)c4)CC3)nc2cc1Br	inactive: -0.587%
COC(=O)c1cc2sc(Cl)cc2n1Cc1cc(C)ccc1C	inactive: 6.05%
CCOc1ccc(CNC(=O)CCCc2cn(C)c3ccccc23)cc1OC	inactive: -5.05%
CCn1cc2c(n1)-c1c(oc(C(=O)Nc3cccc(C(F)(F)F)c3)c1C)CC2	inactive: 13.3%
COc1cc(F)c(S(=O)(=O)Nc2c(C)n(C)n(-c3ccccc3)c2=O)cc1OC	inactive: -0.005%
COC(=O)c1ccc(CSc2nnc3ccc4ccccc4n23)cc1	inactive: 7.35%
COc1ccc(S(=O)(=O)NCc2cccn2Cc2cccc(C)c2)cc1	inactive: 9.66%
COc1ccccc1NC(=O)CC(c1cc(OC)c(OC)c(OC)c1)N1Cc2ccccc2C1=O (configuration not stated)	inactive: -0.189%
CCCCCSc1nc2sc3c(c2c(=O)n1-c1ccc(OC)cc1)CCN(C(C)=O)C3	inactive: 29.1%
Cc1ccc(Nc2c(-c3ccsc3)nc3c(C)cccn23)cc1	inactive: -16.5%
COc1ccccc1CNC(=O)Cn1ncn2c(cc3sccc32)c1=O	inactive: 12.3%
CCOC(=O)CSc1nnc2n(-c3ccccc3)c(=O)c3c4c(sc3n12)CC(C(C)(C)C)CC4 (configuration not stated)	inactive: 4.68%
COc1cc2c(cc1NC(=O)COc1ccc(Cl)cc1Br)oc1ccccc12	inactive: 8.12%
Cc1ccc(-n2nnc(-c3nc(-c4cccs4)no3)c2N)c(C)c1	inactive: 5.85%
COc1ccc(S(=O)(=O)c2c(C(=O)c3ccc(C)c(C)c3)cnc3ccc(F)cc23)cc1	inactive: -16.4%
CC(C)c1ccc(OCC(=O)Nc2c(C(=O)c3ccc(F)cc3)oc3ccccc23)cc1	inactive: 8.76%
Cc1ccc(CNC(=O)C2COc3ccccc3C2)cc1 (configuration not stated)	inactive: -3.21%
COc1ccc2c(c1)Cc1sc(NC(=O)c3cccc(C)c3)nc1-2	inactive: 0.784%
